Reference: the supplement of paper PMC12217912
Some of the results follow. The full chains were built here from the parent and the listed change. Values near 0.05 are background.

B1: TEV protease; numbered along this chain (parent)
chain: MGESLFKGPRDYNPISSSICHLTNESDGHTTSLYGIGFGPFIITNKHLFRRNNGTLVVQSLHGVFKVKDTTTLQQHLVDGRDMIIIRMPKDFPPFPQKLKFREPQREERICLVTTNFQTKSMSSMVSDTSCTFPSGDGIFWKHWIQTKDGQCGSPLVSTRDGFIVGIHSASNFTNTNNYFTSVPKNFMELLTNQEAQQWVSGWRLNADSVLWGGHKVFMVKPEEPFQPVKEATQL

Variants of: B1
Experiment: raw area under fraction-flipped curve 0-4 h after induction (AUC4h, not background-subtracted), DNA-recorder readout of cleavage of the substrate (dimensionless); higher = more cleavage of the substrate by the protease variant
Conditions: temperature: 34 °C; time window: 0-4 h after rhamnose induction
Description: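 In vivo DNA recorder in E. coli TOP10(DE3) ΔrhaA at 34 °C. Each TEVp single-site mutant (parent TEVp 0) is paired with a single-site variant of the 7-mer TEVs (canonical ENLYFQ|S). The substrate sits between flexible linkers in a Bxb1-sfGFP-TEVs-SsrA fusion, so cleavage stabilises Bxb1 and speeds flipping of a recombination array, read by NGS. The value is the raw area under the fraction-flipped curve over 0-4 h after rhamnose induction (AUC4h), with ≥20 reads per time point. It is not background-subtracted; inactive controls average about 0.047.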
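Also: Bxb1 expression induced with 0.2% (w/v) L-rhamnose at OD600 near 0.5, cultures sampled hourly, flipped fraction per protease–substrate barcode pair counted by paired-end Illumina sequencing.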

| Variant | area with substrate ECLYFQS | area with substrate EDLYFQS | area with substrate EELYFQS | area with substrate EFLYFQS | area with substrate EHLYFQS | area with substrate EILYFQS | area with substrate EMLYFQS | area with substrate EPLYFQS | area with substrate EQLYFQS | area with substrate ERLYFQS | area with substrate ESLYFQS | area with substrate ETLYFQS | area with substrate EVLYFQS | area with substrate EWLYFQS | area with substrate EYLYFQS | area with substrate EGLYFQS | area with substrate EKLYFQS | area with substrate ELLYFQS |
| --- | --- | --- | --- | --- | --- | --- | --- | --- | --- | --- | --- | --- | --- | --- | --- | --- | --- | --- |
| P89Q | 0.0799 | 0.0593 | 0.0864 | 0.0974 | 0.0878 | 0.0678 | 0.0769 | 0.127 | 0.0646 | 0.0705 | 0.0827 | 0.101 | 0.0761 | 0.0936 | 0.0899 |  |  |  |
| K90N | 0.104 |  | 0.0729 |  |  | 0.0776 | 0.157 |  | 0.116 |  | 0.0866 |  | 0.105 | 0.101 |  | 0.107 | 0.0902 |  |
| K90P | 0.111 | 0.0985 | 0.117 |  | 0.0925 | 0.088 | 0.135 | 0.103 |  |  | 0.111 |  | 0.115 | 0.11 |  |  | 0.112 | 0.0689 |
| K90S | 0.0961 | 0.125 | 0.0664 | 0.0905 | 0.155 | 0.0647 |  |  | 0.117 | 0.0954 | 0.107 |  | 0.0938 |  |  | 0.104 | 0.0615 |  |
| K98D | 0.127 | 0.109 |  |  |  | 0.1 | 0.11 |  | 0.121 | 0.145 |  |  | 0.113 | 0.144 |  | 0.114 |  |  |
| D91I | 0.102 | 0.129 |  |  |  | 0.0751 | 0.107 |  | 0.118 | 0.12 | 0.118 |  |  |  |  |  | 0.109 |  |
| R106Y | 0.123 | 0.129 | 0.105 | 0.0983 |  | 0.0855 | 0.13 |  | 0.114 | 0.115 | 0.0889 | 0.0936 | 0.0752 | 0.0935 | 0.103 | 0.0961 | 0.121 | 0.1 |
| R109V | 0.0947 |  | 0.137 |  |  |  |  | 0.0998 | 0.11 | 0.0909 | 0.0846 | 0.108 | 0.0901 |  |  | 0.061 | 0.0849 | 0.0486 |
| S124L | 0.0932 |  | 0.0906 | 0.0877 | 0.112 | 0.101 | 0.105 | 0.109 | 0.0868 | 0.0835 |  | 0.0832 | 0.0679 | 0.0839 |  |  |  | 0.0707 |
| S124N | 0.0888 | 0.127 | 0.0964 |  |  |  |  | 0.12 | 0.0922 | 0.0937 |  |  |  | 0.092 | 0.0965 | 0.102 | 0.107 | 0.0998 |
| C111G | 0.0729 |  |  |  |  | 0.104 |  |  | 0.127 |  | 0.117 |  |  |  |  | 0.0684 |  | 0.0934 |
| C111P | 0.0526 |  |  | 0.0609 | 0.0458 | 0.0512 | 0.0393 | 0.062 | 0.0573 |  | 0.047 |  | 0.0518 |  |  |  |  | 0.0605 |
| S123R | 0.0551 | 0.143 |  |  |  | 0.0989 | 0.137 |  | 0.155 | 0.113 | 0.109 |  | 0.0919 | 0.0958 | 0.141 |  | 0.143 | 0.124 |
| Q105S | 0.0824 | 0.138 | 0.121 |  |  | 0.0998 | 0.141 | 0.124 | 0.135 | 0.0866 | 0.106 | 0.132 | 0.0744 | 0.0947 |  | 0.101 |  | 0.0867 |
| R87S | 0.0734 | 0.0923 | 0.086 | 0.0728 | 0.0907 | 0.0873 | 0.0868 | 0.0714 | 0.0859 | 0.0814 | 0.0938 |  |  | 0.0523 | 0.0744 | 0.0867 | 0.0898 | 0.077 |
| R87C | 0.0962 | 0.129 |  | 0.108 |  | 0.0899 |  | 0.109 |  | 0.0934 |  |  |  | 0.0808 | 0.097 | 0.0931 | 0.0565 | 0.0918 |

| Variant | area with substrate ECLYFQS | area with substrate EDLYFQS | area with substrate EELYFQS | area with substrate EFLYFQS | area with substrate EHLYFQS | area with substrate EILYFQS | area with substrate EMLYFQS | area with substrate EPLYFQS | area with substrate EQLYFQS | area with substrate ERLYFQS | area with substrate ESLYFQS | area with substrate ETLYFQS | area with substrate EVLYFQS | area with substrate EWLYFQS | area with substrate EYLYFQS | area with substrate EGLYFQS | area with substrate EKLYFQS | area with substrate ELLYFQS |
| --- | --- | --- | --- | --- | --- | --- | --- | --- | --- | --- | --- | --- | --- | --- | --- | --- | --- | --- |
| P93V | 0.123 |  | 0.107 |  |  |  | 0.124 | 0.114 | 0.0832 | 0.101 | 0.112 |  | 0.0506 | 0.0901 |  | 0.08 | 0.0921 |  |
| P93T | 0.101 | 0.143 |  |  | 0.0882 | 0.15 |  | 0.118 |  |  |  |  |  |  |  |  | 0.109 |  |
| P94F | 0.103 | 0.121 | 0.0758 |  | 0.0932 | 0.0917 |  |  | 0.128 |  | 0.0976 |  | 0.096 |  |  |  |  | 0.0854 |
| P94S | 0.0621 |  | 0.132 | 0.1 |  | 0.0694 | 0.107 |  | 0.0536 |  | 0.14 |  | 0.116 | 0.112 |  | 0.0941 | 0.106 | 0.0912 |
| F117S | 0.112 | 0.0979 |  |  | 0.117 | 0.0995 | 0.0936 | 0.148 | 0.108 | 0.0907 |  | 0.113 | 0.121 |  | 0.0916 | 0.108 | 0.125 | 0.0899 |
| F117C | 0.118 | 0.126 | 0.0045 |  |  | 0.0781 | 0.0963 | 0.115 | 0.133 |  | 0.0882 | 0.144 | 0.12 |  | 0.0994 | 0.087 |  | 0.104 |
| F117A | 0.102 | 0.117 |  | 0.129 | 0.108 |  | 0.0664 |  |  | 0.0959 | 0.133 |  | 0.0798 |  | 0.106 |  | 0.111 |  |
| M125H | 0.111 | 0.152 | 0.136 |  | 0.121 | 0.067 |  | 0.0508 | 0.0782 | 0.12 | 0.121 |  | 0.0966 |  |  | 0.132 |  |  |
| M125Q | 0.0966 | 0.137 | 0.0867 | 0.104 |  | 0.106 | 0.105 | 0.105 | 0.111 |  | 0.123 | 0.116 | 0.104 |  |  |  | 0.109 | 0.0535 |
| M125A | 0.107 | 0.142 | 0.147 |  |  |  |  | 0.105 |  | 0.0994 | 0.094 |  | 0.132 | 0.11 | 0.141 | 0.117 |  |  |
| M125I | 0.127 | 0.113 |  |  |  |  |  |  |  |  | 0.134 |  |  |  | 0.106 |  |  |  |
| L99G | 0.101 | 0.106 | 0.109 |  |  |  | 0.115 |  | 0.0971 | 0.0801 | 0.0615 |  | 0.0717 |  |  |  |  |  |
| L99F | 0.0508 | 0.102 |  |  |  | 0.0835 |  |  | 0.115 | 0.0852 | 0.0682 | 0.122 | 0.0979 |  |  |  |  |  |
| T114I | 0.0901 |  | 0.0953 | 0.0868 |  |  | 0.117 |  | 0.117 | 0.0956 | 0.0959 |  | 0.0869 |  | 0.0896 |  | 0.0987 | 0.0941 |
| Q75V | 0.0789 |  | 0.103 |  |  | 0.0662 |  |  | 0.127 | 0.0723 | 0.0836 | 0.106 | 0.102 |  |  |  | 0.0611 |  |
